# Laboratory results from PubChem BioAssay AID1345083 (National Center for Advancing Translational Sciences (NCATS), 2018).
# Out of some 94,000 compounds screened, about 6,200 (6.6%) were called active. The inconclusive results got no clear call from the source; some entries with a clear call stand among them for comparison. The call rests on the fitted dose curve; in most records, active means well fitted inhibition curve with a large enough effect; inconclusive means small, poorly fitted or top-dose-only effect; inactive means flat fitted curve, though single readings scatter. Potencies beside an inconclusive call are fits to weak or partial responses and may not hold up.
# Assay: Cytotoxic Profiling in HEK 293 Cell Line of Diverse Libraries Using Quantitative High-Throughput Screening; further: nearly all actives have a fitted effect of over 60% in size
# Details: HEK 293 viability, ATP luminescence (CellTiter-Glo), 48-72 h; activity change, negative = cytotoxicity: at 115 µM (top of the series) unless noted; series mostly up to 115 µM
# Outline: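 250 HEK 293 cells/well; compound by pintool; incubated 48 or 72 hr at 37 degree Celsius; CellTiter-Glo added, 10 min RT, luminescence imaged.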
# On the % scale 0 is the no-effect control and ±100 the full control effect; potency means the concentration at half of the fitted maximal effect; tags describe the fitted curve by direction and shape.
SMILES,Potency,"activity change, negative = cytotoxicity",outcome
COc1ccc(-c2noc([C@@H]3Cc4nc[nH]c4CN3C(=O)c3ccc(F)cc3)n2)cc1,"inconclusive: 63.1 µM [inhibitor, partial curve]",,
COc1ccc(Nc2ccnc(N3CCCC(C(=O)NCc4ccc(F)cc4)C3)n2)cc1 (stereo not drawn),"inconclusive: 35.5 µM [inhibitor, full curve, poor fit]",,
Cc1ccc(C(=O)N2CCC(CCn3c(C)cnc3C3CCC3)CC2)c(=O)[nH]1,,inactive: 1.77%,
CCc1ccc(NC(=O)Cn2nc3n(c2=O)CCCCC3)cc1,,inactive: -0.0385%,
O=C(NC1CC1)c1ccc2nc(-c3cccnc3)oc2c1,"inconclusive: 126 µM [inhibitor, single point]",,
Cn1ncc2c(C(=O)NCc3ccccn3)cc(-c3ccc(F)cc3)nc21,"inconclusive: 28.2 µM [inhibitor, partial curve, poor fit]",,
O=C(c1ccncc1)N1CCC(CCOc2ccccc2)C1 (stereo not drawn),"inconclusive: 89.1 µM [inhibitor, single point]",,
Cc1ccc(NC(=O)NC[C@H]2O[C@@H](CC(=O)NCCN3CCOCC3)[C@H](O)[C@@H]2O)cc1,,,inactive
COc1ccc(Cl)cc1C(=O)N1CCC(n2cc(-c3nc(C)no3)nn2)CC1,,inactive: -11.4%,
OCc1cccc(-c2ccc3ncc(Nc4cccc(F)c4)n3n2)c1,active: 56.2 µM,,
COc1ccc2c(c1)OC[C@@H]1CN(C)C(=O)CCN(C(=O)c3ccccc3OC)[C@H]21,,inactive: -21.9%,
O=C(c1nc(-c2ccc(Cl)cc2Cl)c2ccccn12)N1CCN(c2ncccn2)CC1,active: 39.8 µM,,
CC1(C(=O)NCc2cnccn2)CCc2cnc(Nc3ccccc3)nc21 (stereo not drawn),"inconclusive: 100 µM [inhibitor, partial curve]",,
COc1ccccc1C(=O)N1CCC(N2CCCOC2=O)CC1,,inactive: 4.12%,
O=C(Cc1ccsc1)N1CCOc2ccc(CN3CCCCCC3)cc2C1,"inconclusive: 100 µM [inhibitor, partial curve, poor fit]",,
CCOC(=O)[C@H]1[C@@H](O)C(=O)N(Cc2ccccc2)C12CCN(C(=O)OCc1ccccc1)CC2,"inconclusive: 50.1 µM [inhibitor, partial curve, poor fit]",,
CC1=C[C@@H](CNC(=O)CN(C)C)[C@H](C(C)C)C[C@H]1Cc1nc2ccccc2[nH]1,"inconclusive: 28.2 µM [inhibitor, partial curve, poor fit]",,
CN1CCC(C(=O)N2Cc3ccccc3CC3(CCCN(CC4CCNCC4)C3)C2)CC1 (stereo not drawn),,,inactive
COc1cccc([S+](=O)([O-])N2CCCC3(CC(Cc4ccccc4)=NO3)C2)c1 (stereo not drawn),"inconclusive: 79.4 µM [inhibitor, partial curve, poor fit]",,
O=C(C1CCCN1C(=O)C1CC1)N1CCC(c2nc3ccncc3[nH]2)CC1 (stereo not drawn),,inactive: 3.99%,
Cc1cccc(C(=O)Nc2c(N3CCCCC3)c(-c3cccc(F)c3)nn2C)c1,active: 39.8 µM,,
CC(=O)Nc1ccc(NC(=O)CN2C(=O)NC3(CCC(C(C)(C)C)CC3)C2=O)cc1 (stereo not drawn),"inconclusive: 79.4 µM [inhibitor, single point]",,

SMILES,Potency,"activity change, negative = cytotoxicity",outcome
CCOC(=O)C1CCN(C(=O)c2ccc3oc(-c4ccncc4)nc3c2)CC1,,inactive: -22.9% [at 172 µM],
COc1ccccc1-c1cccc(CN2CCCC(C(=O)NCc3cccc(F)c3)C2)c1 (stereo not drawn),active: 12.6 µM,,
N#Cc1ccc(CN2CCC3(CC2)Cc2ccccc2CNC3=O)cc1,"inconclusive: 100 µM [inhibitor, partial curve, poor fit]",,
O=C(Nc1ccc([C@@H](O)[C@H]2COCC(=O)N2CCCc2ccccc2)cc1)c1cnccn1,"inconclusive: 100 µM [inhibitor, single point]",,
O=C(CCn1ccn2nc3c(c2c1=O)CCCC3)Nc1cccc(OC(F)(F)F)c1,,inactive: 0.607%,
COCCc1noc([C@@H]2CC(F)(F)CN2C(=O)c2ncccc2F)n1,,inactive: 2.08%,
CN1CCN([C@H]2[C@@H]3OC[C@@H](O3)[C@@H](NC(=O)Nc3cccc(C#N)c3)[C@@H]2O)CC1,,inactive: -27.3% [at 172 µM],
C[C@@]1(O)CCN(C(=O)c2cc(C(F)(F)F)ccc2Cl)C[C@@H]1O,"inconclusive: 39.8 µM [inhibitor, single point]",,
Cc1ccccc1CN1CCc2nc(C(=O)Nc3ccccc3)oc2CC1,active: 39.8 µM,,
Cc1cc(C)n(CC(=O)N2CC[C@@H](n3c(=O)n(C)c4cccnc43)C2)n1,,inactive: -9.48%,
Cc1ccc(F)c(CN2CCC3(CCNCC3)C2)c1Cl,"inconclusive: 44.7 µM [inhibitor, partial curve, poor fit]",,
COc1ccc(-c2cc(N3CCC(NC(=O)c4ccc(F)cc4F)C3)n[nH]2)cc1 (stereo not drawn),"inconclusive: 28.2 µM [inhibitor, partial curve, poor fit]",,
Cc1nnc2ccc(N3CCC(NC(=O)c4ccc(C(F)(F)F)cc4)C3)nn12 (stereo not drawn),,inactive: -17.6%,
O=C(c1ccccc1F)N1CCN(C(=O)c2nc3cccnc3n(CCc3ccccc3)c2=O)CC1,"inconclusive: 56.2 µM [inhibitor, partial curve, poor fit]",,
O=C(NCc1cccs1)C1CCCN(c2ccnc3ccnn23)C1 (stereo not drawn),active: 89.1 µM,,
CCOC(=O)C1(Cc2cccc(C(F)(F)F)c2)CCN(Cc2cn(CC)nc2C)CC1,active: 20 µM,,
CNC(=O)c1cc(C2CC2)nc2c1c(C1CCN([S+](=O)([O-])c3ccsc3)CC1)nn2C,"inconclusive: 56.2 µM [inhibitor, partial curve, poor fit]",,
Cc1cnc(CC2CCCN(C(=O)CCc3c[nH]c4ccccc34)C2)n1C(C)C (stereo not drawn),"inconclusive: 79.4 µM [inhibitor, single point]",,
COCCCNC(=O)c1cc(-c2ccc(OC)cc2)nc2c1cnn2C,"inconclusive: 50.1 µM [inhibitor, partial curve, poor fit]",,
CCNC(=O)N1CC(Oc2cccc(-c3nc(-c4ccccc4)no3)c2)C1,active: 35.5 µM,,
O=C1NC(=NC2CCCCC2)C2(CCN(Cc3ccc(F)cc3)C2)N1c1cc(F)cc(F)c1 (stereo not drawn),"inconclusive: 35.5 µM [inhibitor, full curve, poor fit]",,
